In article PMC6088137:
Results are given in words; binding and its absence hold for the method and conditions named. Binding seen in cells or lysates may run through a third protein. Some results given as binding are weak or reduced against the parent protein; the word gives no strength. Each block holds one substance with its values, some of them ahead of it.

Sequences of proteins named here, by UniProt entry; tags and fusion partners are left off. A change or cut given only in a name is not applied to a line headed by its entry. A line that says so, or that is headed by a name, gives the form on record, which may keep a tag or linker.
UniProt Q9H6Z9: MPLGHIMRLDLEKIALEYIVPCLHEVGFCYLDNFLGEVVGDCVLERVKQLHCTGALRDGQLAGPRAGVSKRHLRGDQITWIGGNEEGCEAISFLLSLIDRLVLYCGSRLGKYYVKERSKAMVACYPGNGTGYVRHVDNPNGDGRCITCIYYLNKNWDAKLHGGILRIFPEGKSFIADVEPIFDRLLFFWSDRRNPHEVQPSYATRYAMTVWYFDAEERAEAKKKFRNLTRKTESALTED
PHD3 HD135/137AA (Q9H6Z9, form named): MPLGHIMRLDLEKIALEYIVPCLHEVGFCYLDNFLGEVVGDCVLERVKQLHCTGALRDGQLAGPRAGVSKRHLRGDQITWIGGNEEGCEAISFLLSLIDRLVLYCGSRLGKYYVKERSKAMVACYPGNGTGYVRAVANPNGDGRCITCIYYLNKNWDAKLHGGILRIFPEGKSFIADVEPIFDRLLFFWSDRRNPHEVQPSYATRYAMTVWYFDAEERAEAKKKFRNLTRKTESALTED

Legend:
[1] = biological target: GST-p53 (human) (UniProt P04637); experiment: pull-down; bacterial expressed GST-p53 bound to agarose beads, incubated 2 hr with lysates of HEK293T transfected with V5-PHD3, with or without DMOG for 4 hr; western blot; only the target purified
[2] = biological target: endogenous p53 (HeLa) (human (endogenous in HeLa)) (UniProt P04637); experiment: co-IP; HeLa cells with or without DMOG for 4 hr; endogenous PHD3 or endogenous p53 immunoprecipitated, pre-immune antibody as negative control; immunoblot
[3] = biological target: T1, biotinylated peptide, amino acids 349-371 of human p53, hydroxylated at proline 359 (human); experiment: pull-down; biotinylated p53 peptides (349-371; proline or hydroxyproline at 359) bound to streptavidin agarose beads, incubated with lysates of transfected HEK293T cells; streptavidin agarose beads alone as negative control; western blot; only the target purified
T1 sequence (peptide, hydroxyproline at 359; biotin): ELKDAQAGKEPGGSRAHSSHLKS

[4] = biological target: endogenous p53 (HEK293T) (human (endogenous in HEK293T)) (UniProt P04637); experiment: co-IP; HEK293T transfected with PHD3 wt, H196A or HD135/137AA, with or without DMOG for 4 hr; endogenous p53 immunoprecipitated, western blot
[5] = biological target: endogenous PHD3 (HeLa) (human (endogenous in HeLa)) (UniProt Q9H6Z9); experiment: co-IP; HeLa cells with or without DMOG for 4 hr; endogenous PHD3 or endogenous p53 immunoprecipitated, pre-immune antibody as negative control; immunoblot
[6] = biological target: V5-tagged PHD3 (UniProt Q9H6Z9); experiment: co-IP; HEK293T transfected with V5-tagged PHD3; DMSO, DMOG or JNJ for 4 hr; V5 immunoprecipitation, western blot for p53

- binding [1]: binds
Substance: V5-tagged PHD3 (from UniProt Q9H6Z9 1-239) (enzyme)

- binding [2]: binds
Substance: endogenous PHD3 (HeLa) (from UniProt Q9H6Z9 1-239) (enzyme)

- binding [4]: no binding
Substance: PHD3 HD135/137AA (from UniProt Q9H6Z9 1-239) (enzyme)

- binding [6]: binds
Substance: endogenous p53 (HEK293T) (from UniProt P04637 1-393)

More lines, now with the values behind:

Substance: Flag-tagged USP7 (from UniProt Q93009 1-1102) (enzyme)
- binding [3]: binds

Substance: PHD3 wt (Figure 1E) (from UniProt Q9H6Z9 1-239) (enzyme)
- binding [4]: binds

Substance: PHD3 H196A (from UniProt Q9H6Z9 1-239) (enzyme)
- binding [4]: no binding

Substance: endogenous p53 (HeLa) (from UniProt P04637 1-393)
- binding [5]: binds
